This passage reports self-cleavage results from the RNAGym collection of RNA variant scans (doi:10.7554/elife.90254).

B1: LINE1-full (parent)
chain: UACGUAGGUGGUUUUCCCCUGAUAGUGCUAAGGGGGCCUGGAAGUUUGGACUGGGCAGAGCUCAACACAGCGUGGCAAAGUGGCUGUGGCUAGACUGCCUCUCUGGAUUCCUCGUCACUCAGCAGGGCAUCUCUGAGAGAAAUGCC

Read counts are not given, so values of variants with three or more changes are uncertain.

The data set covers variants of B1. Description: self-cleavage, relative activity (ratio to wild type); higher = more cleavage; in vitro, sequencing; the parent is a self-cleaving ribozyme.
On to UACGUAGGUGGUUUUCCCCUGGUAGUGCUAAGGGGGCCUGAAAGUUUGGACUGGGCAGAGCUCAACACAGCGUGGCAAAGUGGCUGAGGCUAGACUGCCUCUCUGGAUUCCUCGUCACUCAGCAGGGCAUCUCUGAGAGAAAUGCC [A22G G41A U87A], for which the self-cleavage came to 0.05. As to UACGUAGGUGGUUUUCCCCUGGUAGUGCUAAGGAGGCCUGGAAGUUUGGACUGGGCAGAGCUCAACACAGCGUGGCAAAGUGGCUGUGGCUAGACUGCCUCUCUGGAUCCCUCGUCACUCAGCAGGGCACCUCUGAGAGAAAUGCC [A22G G34A U109C U130C], the self-cleavage came out at 1.35. As for UACGUAGGUGGUUUUCCCCUGGUAGUGCUAAGGGGGCCUGGAAGUUUGGACUGGGCAGAGUUCGACACAGCGUGGCAAAGUGGCUGUGGCUAGACUGCCUCUCUGGGUUCCUCGUCACUCAGCAGGGCAUCUCUGAGAGAAAUGCC [A22G C61U A64G A107G], the self-cleavage was 0. Turning to UACGUAGGUGGUUUUCCCCUGGUAGAGCUAAGGGGGCCUGGAAGUUUGGACUGGGCAGAGCUCAACACAGCGUGGCAAAGUGGCUGUGGCUAGACUGCCUCCCUGGAUUCCUCGUCACUCAGCAGGGCAUCUCUGAGAGAAAUGCC [A22G U26A U102C], the self-cleavage was 1.53. As for UACGUAGGUGGUUUUCCCCUGGUAGUGCCAAGGGGGCCUGGAAGUUUGGACUGGGCAGAGCUCAACACAGCGUGGCAAAGUGGCUGUGGCAAGACUGCCUCUCUGGAUUCCUCGUCACUCAGCAGGGCAUCUCUGAGAGAAAUGCC [A22G U29C U91A], the figure is 0.99; as for UACGUAGGUGGUUUUCCCCUGGUAGUGCUAAGGGGGCCUGGAAGUUUGGAUUGUGCAGAGCUCAACACAGCGAGGCAAAGUGGCUGUGGCUAGACUGCCUCUCUGGAUUCCUCGUCACUCAGCAGGGCAUCGCUGAGAGAAAUGCC [A22G C51U G54U U73A U132G], 0.83; as for UACGUAGGUGGUUUUCCCCUGGAAGUGCUAAGGGGGCCUGGAAGUUUGGACUGGGCAGAGCUCAACACAGCGUGGCAAAGUGGCUGUGGCUAGACUGCCUCUCUGGAUUCCUCGCCACUCAGCAGGGCAUCUCUGAGAGAGAUGCC [A22G U23A U115C A141G], 1.9. For UACGUAGGUGGUUUUCCCCUGGUAGUGCUAAGGGGGCCAGGAAGUUUGAGCUGGGCAGAGCUCAACACAGCGUGGCAAAGUGGCUGAGGCUAGACUGCCUCUCUGGAUUCCUCGUCACUCAGCAGGGCAUCUCUGAGAGAAAUGCC [A22G U39A G49A A50G U87A], the self-cleavage worked out at 0.19. In the case of UACGUAGGUGGUUUUCCCCUGGUAGUGCCAAGGGGGCCUGGAAGUUUGGACUGGGCAGAGCUCAACACCGCGUGGCAAAGUGGCUGUGGCUAGACUGCCUCUCUGGAUUCCUCGCCACUCAGCAGGGCAUCUCUGAGAGAAAUGCC [A22G U29C A69C U115C] it was 0.54. In the case of UACGUAGGUGGUUUUCCCCUGGUAGUGCUAAGGGGGCCUGGAAGUUUGGACUGGGCAGAGCUCAACACAGCGUGGCAAAGUGGCUGUUGCUAGACUGCCUCUCUGGAUUCCUCGUCACUCAGCAGGGCAUCUCUGAGAGAAGUGCC [A22G G88U A142G] it was 0.

Regarding UACGUAGGUGGUUUUCCCCUGGUAGUGCUAAAGGGGCCUGGAAGUUUGGACUGGGCAGGGCUCAACACAGCGUGGCAAAGUGGCUGUGGCUAGACUGCCUCUCUGGAUUCCUCGUCACUCAGCAGGGCAUCUCUGAGAGAAAUGCC [A22G G32A A59G], the self-cleavage turned out to be 0.11. As for UACGUAGGUGGUUUUCCCCUGGUAGUGCUAAGGGGGCCUGGAAGUUUAGGCUGGGCAGAGCUCAACACAGCGUGGCAAAGUGGCUGUGGCUAGACUGCCUCUCUGGAUUCCUCGUCACUCAGCAGGGCAUCUCUGAGAGAAAUGCC [A22G G48A A50G], the figure is 0.77. As for UACGUAGGUGGUUUUCCCCUGGUAGUGCUAAAGGGGCCUGGAAGUUUGGACUGGGCAGAGCUCAACACAGCGUGGCAAAGUGGCUGUGGCUAGACUGCCUCUCUGGAUUCCUCGUCACUCAGCAGGGCGUCUCCGAGAGAAACGCC [A22G G32A A129G U134C U143C], the figure is 0.17. In the case of UACGUAGGUGGUUUUCCCCUGGUAGUGCUAAGGGCGCCUGGAAGUUUGGACUGUGCAGAGCUCAACACAGCGUGGCAAAGUGGCUGUGGCUAGACUGCCUCUCUGGAUUCCUCGUCACUCAGCAGGGCAUCUCUGAGAGAAAUGCC [A22G G35C G54U] it was 0.69; in that of UACGUAGGUGGUUUUCCCCUGGUAGAGCUAAGGGGGCCUGGAGGUUUGGACUGGGCAGAGCUCAACACAGCGUGGCAAAGUGGCUGAGGCUAGACUGCCUCUCUGGAUUCCUCGUCACUCAGCAGGGCAUCUCUGAGAGAAGUGCC [A22G U26A A43G U87A A142G], 0.06. UACGUAGGUGGUUUUCCCCUGGUAGUGCUAAGGGCGCCUGGAAGUUUGGACUGGGCAGAGCUCAACACAGCGUGGCAAAGUGGCUGUGGCUAGACUGCCUCUCUGGAUUCCCCGUCGCUCAGCAGGGCAUCUCUGAGAGAAAUGCC [A22G G35C U112C A117G]: the self-cleavage was 0.71.

Turning to UACGUAGGUGGUUUUCCCCUGGUAGUGCUAAGGGGGCCUGAAAGUUUGGACUGGGCAGAGCUCAACGCAGCGAGGCAAAGUGGCUGUGGCUAGACUGCCUCUCUGGAUUCCCCGUCACUCAGCAGGGCAUCUCCGAGAGAAAUGCC [A22G G41A A67G U73A U112C U134C], the self-cleavage came out at 0.24. As for UACGUAGGUGGUUUUCCCCUGGUAGCGCUAAGGGGGCCUGGAAGUCUGGACUGGGCAGAGCUCAACACAGCGUGGCAAAGUGGCUGUGGCUAGACUGCCUCUCUGGAUUCCUCGUCACUCAGCAGGGCAACUCUGUGAGAAAUGCC [A22G U26C U46C U130A A136U], the figure is 1.53; as for UACGUAGGUGGUUUUCCCCUGGUAGAGCUAAGGGGGCCUGGAAGUUUGGACUGGGCAGAGCUCAACACAGCGUGGCAAAGUGGCUGUGGCUAGACUGCCUCUCUGGAUUCCUCGUCACUCAGCGGGGCAUCUCUGAGAGAAAUGCC [A22G U26A A124G], 0.45; as for UACGUAGGUGGUUUUCCCCUGGCAGUGCUAAGGGGGCCUGGAAGUUUGGACUGGGCAGAGCUCAACACAGCGUGGCAAAUUGGCUGUGGCUAGACUGCCUCUCUGGACUCCUCGUCACUCAGCAGGGCAUCUCUGAGAGAAAUGCC [A22G U23C G80U U108C], 2.35. As for UACGUAGGUGGUUUUCCCCUGGUAGUGCUAAGGGGACCUGGAAGUUUGGACUGGGCAGAGCUCAACACAGCGUGGCAAAGCGGCUGUGGCUAGACUGCCUCUCUGGAUUCCUCGUCACUCAGCAGGGCAUCUCUGAGAGAAAUGCC [A22G G36A U81C], the figure is 1.19; as for UACGUAGGUGGUUUUCCCCUGGUAGUGCUAAGGGGGACUGGAAGUUUGGACAGGGCAGAGCUCAACACAGCGUGGCAAAGUGGCUGUGGCUAGACUGCCUCUCUGGAUUCCUCGUCACUCAGCAGGGCAUCUCUGAGAGAAAUGCC [A22G C37A U52A], 0; as for UACGUAGGUGGUUUUCCCCUGGUAGUGCUAAGGGGGCCUGGAAGUUUGGACUGGGCAGAGCUCAACACAGCGUGGCAAAGUGGCUGUGGCUAGACUGCCUCUCUUGAUUCCUCGUCACUCAGCAGGGCAUCUCUGAGAGAAAAGCC [A22G G105U U143A], 1.54. In the case of UACGUAGGUGGUUUUCCCCUGGUAGUGCUAAGCGGGCCUGGAAGUUUGGACUGGGCAGAGCUCAACACAGCGUGGCAAAGUGGCUGUGGCUAGACUGCCUCUCUGGAUUCCCCGUCACUCAGCAGGGCAUCUCUGAGAGAAAUGCC [A22G G33C U112C] it was 1.23; in that of UACGUAGGUGGUUUUCCCCUGGUAGUGCUAAGGGGGCCUGGAAGUUUGGACUGGGCAGAGCUCAACACAGCGUGGCAAAGUGGCUGUAGCUAGACUGCCUCUCUGGAUUCCUCGUUACUCAGCAGGGCAUCUCUGAGAGAAAUGCC [A22G G88A C116U], 0.1.

Take UACGUAGGUGGUUUUCCCCUGGUAGUGCUAAGGGGGCCUGGAAGUUUGGACUGGGCAGAGCUCAACAUAGCGUGGUAAGGAGGCUGUGGCUAGACUGCCCCUCUGGGUUCCUCGUCACUCAGCAGGGCAUCUCUGAGAGAAAUGCC [A22G C68U C76U A79G U81A U100C A107G]: the self-cleavage amounted to 1.7. Regarding UACGUAGGUGGUUUUCCCCUGGAAGUGCUAAGGGGGCCUGGAAGUUUGGACUGGGCAGUGCUCAACACAGCGUGGCAAAGUGGCUGUGGCUAGACUGCCUCUCUGGAUUCCUCGACACUCAGCAGGGCAUCUCUGAGAGAAAUGCC [A22G U23A A59U U115A], the self-cleavage amounted to 0.71.

As for UACGUAGGUGGUUUUCCCCUGGUAGCGCUAAGGGGGCCUGGAAGUUUGGACUGGGCAGAGCUCAACAUAGCGUGGCAAAGUGGCUGUGGCUAGACUGCCUCUCUGGAUUCCUCGUCACUCAGCAGGGCAUCUCUGGGAGAAAUGCC [A22G U26C C68U A136G], the self-cleavage was 0.55.

Turning to UACGUAGGUGGUUUUCCCCUGGUAGCGCUAAGGGGGCCUGGAAGUUUGGACUGGGCAGAGCUCGACACAGCGUGGCAAAGUGGCUGUGGCUAGACUGCCUCUCUGGAUUCCUCGUCACUCAGCAGGGCAUCUCUGAGAGAAAUGCC [A22G U26C A64G], the self-cleavage was 0. As for UACGUAGGUGGUUUUCCCCUGGUAGUGCUAAGGGGGCCUGGAAGUUUGGACUGGGCAAAGCUCAACACAGCGUGGCAAAGUGGCUGUGGCUAGUCUGCCUCUCUGGAUUCCUCGUCACUCAGCAGGGCAUCUCAGAGAGAAAUGCC [A22G G58A A94U U134A], the figure is 0.02; as for UACGUAGGUGGUUUUCCCCUGGUAGUGCCAAGGGGGCCUGGAAGUUUGGACUGGGCAGAGCUCAACACAGCGUGGCAAAGUGGCUGUGGCUAGACUGCCUCUCUGGAUUCCUCGUCACUCAGCAGGGCAUCUCUGAGAGAAGUGCC [A22G U29C A142G], 0.35. As for UACGUAGGUGGUUUUCCCCUGGUAGUGCUAAGGGUGCCUGGAAGUUUGGACUGGGCAGAGCUCAACACGGCGUGGCAAAGUGGCUGUGGCUAGACUGCCUCUCUGGAUUCCUCGUCACUCAGCAGGGCAUCUCUGAGAGAAAUGCC [A22G G35U A69G], the self-cleavage was 0.29. In the case of UACGUAGGUGGUUUUCCCCUGGUAGUGCUAAAGGGGUCUGGAAGUUUGGACUGGGCAGAGCUCAACACAGCGUGGCAAAGUGGCUGUGGCUAGACUGCCUCUCUGGAUUCCUCGUCACUCAGCAGGGCAUCUCUGAGAGAAAUGCC [A22G G32A C37U] it was 1.25; in that of UACGUAGGUGGUUUUCCCCUGGUAGUGCUAAGGGGGCCUGGAAGUUUGGACUGGGCAGACCUCAACACAGCGUGGCAAAGUGGCUAUGGCUAGACUGCCUCUCUGGAUUCCUCGUCACUCAGCAGGGCAUCCCUGAGAGAAAUGCC [A22G G60C G86A U132C], 0.09.

In the case of UACGUAGGUGGUUUUCCCCUGGUAGAGCUAAGGGGGCCUGGAGGUUUGGACUGGGCAGUGCUCAACACAGCGUGGCUAAGUGGCUGUGGCUAGACUGCCUCUCUGGACUCCUCGUCACUCAGCAGGGCAUCUCUGAGAGAAAGGCC [A22G U26A A43G A59U A77U U108C U143G], the self-cleavage stood at 0. In the case of UACGUAGGUGGUUUUCCCCUGGUAGUGCUAACGGGGCCUGGAAGUUUGGACUGGGCAGAGCUCAACACAGCGUGGCAAAGUGGCUGUGGCUAGACUGCCUCUCUGGAUUCCUCGCCACUCAGCAGGGCAUCUCUGAGAGAAAUGCC [A22G G32C U115C] it was 1.15; in that of UACGUAGGUGGUUUUCCCCUGGUAGUGCAAAGGGGGCCUGGAAGUUUGGACUGGGCAGAGCUCAACACAGCGUGGCAAGGUGGCUGUGGCUAGACUGCCUCUCUGGAUUCCUCGUCACUCAGCAGGGCAUCUCGGAGAGAAAUGCC [A22G U29A A79G U134G], 0.77; in that of UACGUAGGUGGUUUUCCCCUGGUAGUGCUAAGGGGGCCUGGAAGUUUGGACUGGGCAGAGCUCAACACAGUGUGGCAAAGUGGCUGUGGCUAGACUGCCCCUCUGGAUUCCUCGUCACUCAGCAGGGCAUCUCUGAGAGAACUGCC [A22G C71U U100C A142C], 1.37. In the case of UACGUAGGUGGUUUUCCCCUGGUAGUGCUAAGGGGGCCUGGAAGUUUGGACUGGGCAGAGCUCAACACAGCGUGGCAAAGUGGCUGUGACUAGACAGCCUCUCUGGAUUCCUCGUCACUCUGCAGGGCAUCUCUGAGAGAAAUGCC [A22G G89A U96A A121U] it was 0.04.
